From publication PMC4336329 (PLoS ONE, 2015)
About 2,200 (0.71%) of roughly 310,000 compounds showed an effect of 50% or more. Effects have a minus sign here. Some of the results follow.

The compounds below were run against human ether-à-go-go-related gene (hERG) potassium channel (human, UniProt Q12809) (assay: primary screen, population patch clamp on CHO cells stably expressing hERG).
human ether-à-go-go-related gene (hERG) potassium channel, sequence (Q12809 whole entry, looked up): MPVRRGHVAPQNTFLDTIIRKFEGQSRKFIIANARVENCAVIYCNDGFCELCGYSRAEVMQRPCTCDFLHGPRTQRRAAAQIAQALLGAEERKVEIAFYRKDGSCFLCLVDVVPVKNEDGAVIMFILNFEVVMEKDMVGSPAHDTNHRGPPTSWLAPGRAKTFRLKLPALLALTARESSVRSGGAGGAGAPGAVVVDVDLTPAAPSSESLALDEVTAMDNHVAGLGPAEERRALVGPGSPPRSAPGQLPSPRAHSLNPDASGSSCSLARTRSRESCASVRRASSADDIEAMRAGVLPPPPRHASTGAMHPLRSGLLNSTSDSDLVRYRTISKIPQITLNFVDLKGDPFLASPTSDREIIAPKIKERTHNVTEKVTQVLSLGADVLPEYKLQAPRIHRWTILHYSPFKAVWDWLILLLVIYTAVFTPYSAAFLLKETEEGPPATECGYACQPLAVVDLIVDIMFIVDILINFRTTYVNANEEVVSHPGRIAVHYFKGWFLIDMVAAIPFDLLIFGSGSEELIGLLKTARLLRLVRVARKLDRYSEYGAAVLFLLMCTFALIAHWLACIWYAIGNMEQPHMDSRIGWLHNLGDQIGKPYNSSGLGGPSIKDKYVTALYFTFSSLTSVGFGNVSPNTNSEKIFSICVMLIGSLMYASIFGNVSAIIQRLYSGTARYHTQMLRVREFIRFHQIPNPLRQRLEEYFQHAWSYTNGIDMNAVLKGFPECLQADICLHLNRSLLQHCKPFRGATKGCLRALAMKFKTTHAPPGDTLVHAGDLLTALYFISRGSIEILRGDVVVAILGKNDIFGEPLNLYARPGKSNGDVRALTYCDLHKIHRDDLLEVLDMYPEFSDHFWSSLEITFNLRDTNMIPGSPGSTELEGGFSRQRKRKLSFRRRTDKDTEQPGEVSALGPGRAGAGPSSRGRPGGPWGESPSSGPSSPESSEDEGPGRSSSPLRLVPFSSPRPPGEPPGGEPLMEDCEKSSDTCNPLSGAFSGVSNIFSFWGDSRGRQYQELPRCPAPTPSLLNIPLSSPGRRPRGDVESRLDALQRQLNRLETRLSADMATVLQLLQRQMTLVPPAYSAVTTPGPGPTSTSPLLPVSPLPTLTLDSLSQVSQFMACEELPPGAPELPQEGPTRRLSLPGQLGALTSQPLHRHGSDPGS

| SMILES | hERG current change (%, negative = inhibition) at 1uM [%] |
| --- | --- |
| O=S1CCCSC1c1cccnc1 (centres unmarked) | -3.81 |
| Cc1ccccc1NC(=S)N(Cc1cccs1)C1CCCC1 | 1.53 |
| CC(=O)c1c(C)nc(C)nc1NC(=O)Cc1ccccc1 | 16 |
| COc1ccc(-c2cn3cc([N+](=O)[O-])ccc3n2)cc1OC | 7.6 |
| O=C(NCCS(=O)(=O)NCc1cccnc1)c1ccccc1 | 5.54 |
| CN(C)c1cc[n+](CCC(=O)Nc2cccc([N+](=O)[O-])c2N)cc1.[Cl-] | 14.7 |
| O=C(Cn1nc(-c2ccccc2)ccc1=O)N1CCCCC1 | -4.15 |
| COc1ccc(NC(=O)C2CCCN(C(=O)NC3CCCCC3)C2)cc1OC (centres unmarked) | 3.01 |
| CC(CC(=O)NC1CCSC1=O)c1ccccc1 (centres unmarked) | 9.65 |
| CCOC(=O)C(Oc1ccc(=O)n(-c2ccccc2)n1)C(C)=O (centres unmarked) | 4.54 |
| Cc1cc(C)c(S(=O)(=O)ON2C(=O)c3ccccc3C2=O)cc1C | -1.76 |
| O=C(c1ccccc1)N1CCN(C2CC(=O)N(CCc3ccccc3)C2=O)CC1 (centres unmarked) | 2.33 |
| c1ccc2c(c1)CC1(CCCC1)N=C2N1CCOCC1 | 23.2 |
| NC(=O)C1(N2CCCCC2)CCN(Cc2ccccc2Cl)CC1 | 12.1 |
| O=C(c1ccc(Br)o1)N(Cc1ccccc1)Cc1ccccc1 | 4.84 |
| O=C(c1cc2cc(Cl)ccc2o1)N1CCCC1 | 15.7 |
| COc1cc2c(cc1OC)CN(c1nc(CN3CCOCC3)nc3sc4c(c13)CCCC4)CC2 | -54 |
| CC(=O)c1ccc(OC(=O)COc2ccccc2)cc1 | 15.8 |
| O=C(O)C1C2C=CC3(O2)C1C(=O)N1c2ccccc2C2OCCC2C13 (centres unmarked) | 7.38 |
| C1CCC(C(CC2CCCCN2)C2CCCCC2)CC1.O=C(O)/C=C\C(=O)O (centres unmarked) | 8.76 |

| SMILES | hERG current change (%, negative = inhibition) at 1uM [%] |
| --- | --- |
| CCOC(=O)C1CCN(C(=O)c2ccc(OCC)c(OCC)c2)CC1 | -43.7 |
| NC(=O)C1CCN(C(=O)c2ccc3nc(-c4ccccc4)c(-c4ccccc4)nc3c2)CC1 | 12.2 |
| O=S(=O)(Cc1ccccc1Cl)N1CCCCC1 | 2.78 |
| Cc1cccc(N(CC(=O)N/N=C/c2cc([N+](=O)[O-])ccc2Cl)S(C)(=O)=O)c1C | -0.0837 |
| Cc1ccc(C)c(OCC(=O)O/N=C(\N)c2cccnc2)c1 | 9.24 |
| CC(C)=CCc1c(O)cc2c(c1O)C(=O)CC(c1ccc(O)cc1)O2 (centres unmarked) | 8.23 |
| Cc1ccc(Sc2ccc(N)cn2)cc1 | 4.94 |
| CCNc1nc(NCC)n2c(SCC(=O)Nc3ccc(NC(C)=O)cc3)nnc2n1 | 3.54 |
| COc1ccc(C(=O)C2CCN(C(=S)Nc3ccc(F)cc3)CC2)cc1 | -6.05 |
| O=C(CCS(=O)(=O)c1ccc(Br)cc1)Nc1ccccc1Cl | 15.9 |
| Nc1nnc(COc2cccc(C(F)(F)F)c2)s1 | 7.33 |
| Cc1ccc(CNC(=O)COC(=O)Cn2nc(C)c([N+](=O)[O-])c2C)cc1 | 5.2 |
| CN(CC(=O)NCc1ccccc1Cl)S(=O)(=O)c1ccc2c(c1)n(C)c(=O)c(=O)n2C | 10.1 |
| COc1ccc(CN2CCNC(=O)C2CC(=O)N(C)Cc2nccn2C)cc1OC (centres unmarked) | 11 |
| O=C1C(c2ccncc2)=C(O)c2ccccc21 | 6.68 |
| CC(C)(C)NC[C@@H](O)COc1cccc2c1CCCC2=O.Cl | 2.24 |
| Cn1/c(=N/N=C/c2ccc(N3CCOCC3)cc2)sc2ccccc21 | -8.84 |
| O=C(Nc1cccnc1)c1cccc([N+](=O)[O-])c1 | 8.65 |
| CCn1c(C)c(C)c2cc(C(=O)NCCCN3CCCCC3)ccc21 | 5.47 |
| CCOC(=O)C1CCN(Cc2cc(C(C)C)c(O)c(C(C)C)c2)CC1 | -3.27 |

| SMILES | hERG current change (%, negative = inhibition) at 1uM [%] |
| --- | --- |
| CCOc1ccc(-n2c(SCC(N)=O)nc3c(c2=O)SCC3)cc1 | 8.48 |
| Cl.O=C(CN1CCOCC1)NCC12CC3CC(CC(C3)C1)C2 | 9.11 |
| S=c1[nH]nc(-c2ccccc2)n1Cc1ccccc1 | 11.7 |
| Cc1ccc(C(=O)Nc2ccc3c(c2)CCC3)o1 | -9.43 |
| Cc1cccc(-n2ncc3c(NCCCn4ccnc4)ncnc32)c1 | 3.9 |
| O=[N+]([O-])/C=C1\C=CC=CN1Cc1ccc(Cl)cc1 | 3.51 |
| CCOc1ccc(C(O)(c2ccccc2OC)C(CN2CCCC2)c2ccccc2)cc1.Cl (centres unmarked) | 10.3 |
| COc1ccc(Br)cc1/C=N/n1c(COc2ccccc2)n[nH]c1=S | 11 |
| COc1ccc(Cl)cc1NS(=O)(=O)c1cccc(C(=O)NCC2CCCO2)c1 (centres unmarked) | 5.12 |
| CCOc1ccc(NC(=O)CN2CCCC2c2cccs2)cc1S(=O)(=O)N1CCCCC1 (centres unmarked) | 4.55 |
| CCOC(=O)c1sc(S(C)=O)c2c1CCc1conc1-2 (centres unmarked) | 2.38 |
| COc1ccc(N=C2SC(CC(=O)Nc3ccccc3)C(=O)N2CCN2CCOCC2)cc1 (centres unmarked) | 3.66 |
| Nc1ccc(Cl)cc1/C(=N/O)c1ccccc1 | 9.73 |
| CCOc1ccc(C(=O)OCn2nnc3ccccc3c2=O)cc1OC | 12 |
| CC(=O)C1=C(C)NC(SCC(=O)c2ccc(Cl)cc2)=C(C#N)C1CC(C)C (centres unmarked) | 7.52 |
| Nc1nc(SCC(=O)c2cccs2)n[nH]1 | 6.15 |
| CCCc1cc(=O)[nH]c(SCc2ccc(F)cc2)n1 | 10.1 |
| Cc1nc(C)c(CCNC(=O)c2ccccc2)s1 | 16.6 |
| CCOC(=O)c1sc(NC(=O)/C=C/c2cnn(C)c2C)c(C(=O)OCC)c1C | 8.05 |
